# Source: PMC12136788
# The list shows a part of the results.
# T1: UNK ZnF1-6 (called full-length) (human, UniProt Q9C0B0 30-357)
# T1 sequence: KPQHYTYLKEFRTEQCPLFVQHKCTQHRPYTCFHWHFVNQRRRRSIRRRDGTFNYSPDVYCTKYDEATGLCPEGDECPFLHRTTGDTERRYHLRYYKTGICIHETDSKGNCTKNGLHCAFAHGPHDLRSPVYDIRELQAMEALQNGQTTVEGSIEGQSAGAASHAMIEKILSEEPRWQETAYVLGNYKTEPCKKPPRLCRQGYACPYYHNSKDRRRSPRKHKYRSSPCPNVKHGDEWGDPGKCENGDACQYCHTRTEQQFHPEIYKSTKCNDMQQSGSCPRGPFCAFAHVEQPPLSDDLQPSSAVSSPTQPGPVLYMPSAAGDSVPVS
# B1: chr11:10797513:10797714:-|3pUTR|ENSG00000110321|msi1_unk|total|mutant (ssRNA)
# RNA: GGGAGUUCUACAGUCCGACGAUCUUCUGCAUAAGGUUUUUUUGCCGUGUAAUGUCUUAAUCACCGUCUACCAUCAAAUAUUUCCGGAGUAUCUUUAAUGUUCCGACCGUAUAUCCGCAGCAUGCAAUAAUUACAUCAUAAGUUCAACAGAGGAUUGAGCAUCA
# B2: chr1:213241217:213241334:+|CDS|ENSG00000136643|unk|FALSE|unique (ssRNA)
# RNA: GGGAGUUCUACAGUCCGACGAUCAGUUCUCCAAGAACAUCAGAUUCCCUCAGUAGAUCAAAAAAUAGCCCCAUGGAAUUCUUUAGGAUAGACAGUAAGGAUAGCGCAAGUGAACUCCUGGGACUUGACUUUGGAGAAAAAUUGCAACAGAGGAUUGAGCAUCA
# B3: chr12:122341087:122341188:-|CDS|ENSG00000130779|unk|total|mutant (ssRNA)
# RNA: GGGAGUUCUACAGUCCGACGAUCAGAAUUUGCUGAACUAAAAACACAAACCGAGAAAAUGAGACCCGAUUACCAACACGAAACCGAAAAUUUGCAGAAUCAACAAGACUCUGAACGGGCUGCCCAUGCUAAAGAGAUGGAAGCCAACAGAGGAUUGAGCAUCA
# B4: chr9:20999508:21007036:-|three_prime_utr|ENSG00000188921|control|control|control (ssRNA)
# RNA: GGGAGUUCUACAGUCCGACGAUCAUACCUUGUAUUUGAUAAAAAUCCAUUACAUGAAAUAACUGCACAUACCCCCAAAACUCUAGACAUAACAGGCUAUGUUUUUCACACAUUGUAUUUUUAAGACAUAUAUAUUCUCCAUACCAACAGAGGAUUGAGCAUCA
# B5: chr11:69651733:69651797:+|3pUTR|ENSG00000110092|msi1_unk|total|mutant (ssRNA)
# RNA: GGGAGUUCUACAGUCCGACGAUCAAAACAUUUUAAAAACACCGAAAAAUUCAGCAAACCAUUUUUAAAGCCGAAGAGGGUUUCCGGCCGAAAAACAUAUUCUUGUGCUUUUCCUGAUAAAGCACAGCUGCCGUGGGGUUCCCGCAACAGAGGAUUGAGCAUCA
# B6: ENSG00000074590:stop:overlap|stop_codon|ENSG00000074590|stop_codon|NA|stop_codon (ssRNA)
# RNA: GGGAGUUCUACAGUCCGACGAUCACAUGGAUGAUGUGACUCAGGUCUACAAGCAAGCGCUGGAGAUCUGCAGCAAGCUCAACUAGCAUUCCAGGGCGCCCAGGGGCGGGCGGGGGUACGAGGGAGGAAGGGGAGCAAGACUUGCAACAGAGGAUUGAGCAUCA
# B7: chr20:4700004:4700108:+|3pUTR|ENSG00000171867|msi1|FALSE|unique (ssRNA)
# RNA: GGGAGUUCUACAGUCCGACGAUCUCACCAUCUUUCUAAUCUUUUUCCAGCUUGAGGGAGGCGGUAUCCACCUGCAGCCCUUUUAGUGGUGGUGUCUCACUCUUUCUUCUCUCUUUGUCCCGGAUAGGCUAAUCAAUACCCUUGCAACAGAGGAUUGAGCAUCA
# B8: chr7:32869000:32869101:-|3pUTR|ENSG00000170852|msi1|FALSE|bound_elsewhere (ssRNA)
# RNA: GGGAGUUCUACAGUCCGACGAUCAAUUGAGAAACUUUAUGUGUAAUCAUGAGAGUAUAAGAAUCUGGAUUAUCUAACAUUGUUAGCCCUGUGUAUGUACAGUUCAAAAAGUUCAUUUAUAAAAGUAGUUUCCUGUUCCUAGUGCAACAGAGGAUUGAGCAUCA
# B9: ENSG00000065911:stop:overlap|stop_codon|ENSG00000065911|stop_codon|NA|stop_codon (ssRNA)
# RNA: GGGAGUUCUACAGUCCGACGAUCACAGCUGCUCCCUUCGCCUUCGCCCUUUCCACCUCGCGGCAGUUCGGGGAAUCUCUCCCUAGGUCAGGUUGGAGUGCAGUGCUGCAAUCACGGCUUACUGCAGCCUUGACCUCCUGGGCUCAACAGAGGAUUGAGCAUCA
# B10: chr8:65707876:65707977:+|CDS|ENSG00000066855|unk|FALSE|unique (ssRNA)
# RNA: GGGAGUUCUACAGUCCGACGAUCCCUGCUGCCCUCAUAGCAGAGGCUCUGAAAAAGAAAUUUGCUUAUCGGUAUCGAAGUGAUAGCCAAGAUGAAGUUGAAAAAGGAAUUCCAAAGUCUGAAUCAGAGGCCACCUCAGAGAGACAACAGAGGAUUGAGCAUCA
# B11: chr9:96387934:96388035:-|3pUTR|ENSG00000165244|msi1|total|mutant (ssRNA)
# RNA: GGGAGUUCUACAGUCCGACGAUCAAUAUUUUGUAAAUAUGGACUGCACAGUACAGGGCCGAAAACUACAUAUUGUGGGAAGCCCGAUUUUGCAAGUUUAAUGCAUUCAUUGGAAGCAGUUCUCACAGGAAGCACUUUCUGAAUCAACAGAGGAUUGAGCAUCA
# B12: chr2:88027786:88028563:-|CDS|ENSG00000172086|control|control|control (ssRNA)
# RNA: GGGAGUUCUACAGUCCGACGAUCAACCGUACAUGUCAGUACAGAAAAGCUUAAGAAUCGAAAGGAGAAAAAAAGCCGAGAUGUAGUCUCUAAGAAAGAGGAACGUAAGCGUACAAAAAAGAAAAAGGAACAAGGCCAAGAAAGCAACAGAGGAUUGAGCAUCA
# B13: chr11:86278520:86278536:+|CDS_3pUTR|ENSG00000074266|msi1_unk|FALSE|overlapping (ssRNA)
# RNA: GGGAGUUCUACAGUCCGACGAUCUGAUGCCAGUAUUUGGCGCUGGGAUCGACUUCGAUAAAAUACUUUUGCCUAAUCAAAAUUAGAGUGUGUUUGUUGUCUGUGUAAAAUAGAAUUAAUGUAUCUUGCUAGUAAGGGCACGUACAACAGAGGAUUGAGCAUCA
# B14: ENSG00000113068:stop:overlap|stop_codon|ENSG00000113068|stop_codon|NA|stop_codon (ssRNA)
# RNA: GGGAGUUCUACAGUCCGACGAUCGAAGCGUUAAGGAAGCUGAGGACAACAUCCGGGAGAUGCUGAUGGCACGAAGGGCCCAGUAGGGAGCCUCUCUGGGAAGCUCUUCCUCCUGCCCCUCCCAUUCCUGGUGGGGGCAGAGGACAACAGAGGAUUGAGCAUCA
# B15: chr8:88167829:88167930:-|CDS|ENSG00000156103|msi1|FALSE|bound_elsewhere (ssRNA)
# RNA: GGGAGUUCUACAGUCCGACGAUCCUUUGAUGUGUGGCAGAAUGUAACUCCUCUGACAUUUGAAGAAGUUCCCUACAGUGAAUUAGAAAAUGGCAAACGUGAUGUGGAUAUAACCAUUAUUUUUGCAUCUGGUUUCCAUGGGGACAACAGAGGAUUGAGCAUCA
# B16: chr3:133826890:133826991:-|3pUTR|ENSG00000154917|unk|FALSE|unique (ssRNA)
# RNA: GGGAGUUCUACAGUCCGACGAUCUUUGAACGUGUUUCAGAUGUCAUGUGUUUAGUUUUUAUAUGUGUGUACAUAAUUAUAUAUAGAGAUAGACUUGUGUAUACACCUUCCACAAACACAUCCUCACGGAGAUACAUGUGCUCACAACAGAGGAUUGAGCAUCA
# B17: chr5:159157431:159157536:-|3pUTR|ENSG00000145860|unk|FALSE|bound_elsewhere (ssRNA)
# RNA: GGGAGUUCUACAGUCCGACGAUCCAAAAAGUGUUUUUCAGACCUCGGUAUUCCUAAUGUGGGAUGUGACUUUAUUUUAUUUUUAGUAGCAAAUUUGGAUGUAGACUGACAGACAUAGCUGAAUGUCUUAAUAAAUUUAAAUUUCAACAGAGGAUUGAGCAUCA
# B18: chrX:13708825:13708941:+|CDS|ENSG00000123595|unk|total|mutant (ssRNA)
# RNA: GGGAGUUCUACAGUCCGACGAUCGAGUUCACUUAUGAACAGAUAUGUAACUAAUAAGUUUGAUACCCAGCUCUUCCAUACAACCGGUGUGGAAUUUUUAAAUAAAGAUUUGGAAGUGGAUGGACAUUUUGUUACCAUGCAGAUCAACAGAGGAUUGAGCAUCA
# B19: chr18:9400975:9401076:+|3pUTR|ENSG00000128791|msi1|FALSE|unique (ssRNA)
# RNA: GGGAGUUCUACAGUCCGACGAUCUAUAAAAAUAGAUAAUGCUCUUGGACACAUUUUGUAUUAUUCAUGAUCUGAAUAGUAGUUAGUUAAAAGAUCAUUUGUAAUAUUAUGAUCAACUGUUAUAAAUUAAGGUCUUAAUACCUUCAACAGAGGAUUGAGCAUCA
# B20: chr1:214641902:214642005:+|CDS|ENSG00000117724|unk|total|mutant (ssRNA)
# RNA: GGGAGUUCUACAGUCCGACGAUCAGAAAUCAAUGUAAUUUUAAACCUCAGAUGGAUCUUGAAGUUAAAGAAAUUUCUCCCGACCGUUAUAAUGCGCAGUUGGUGCAAUCCGAAGCUAUGCUAAGAAAUAAGGAAUUAAAACUUCAACAGAGGAUUGAGCAUCA
# B21: chr4:168927217:168927233:+|3pUTR|ENSG00000129116|msi1_unk|FALSE|overlapping (ssRNA)
# RNA: GGGAGUUCUACAGUCCGACGAUCAACCACCCAAAUGACCAAGGCAUAUAUAGUAUUUGGAGGAAUCAGGGGUUUGGAAGGAGUAGGGAGGAGAAUGAAGGAAAAUGCAACCAGCAUGAUUAUAGUGUGUUCAUUUAGAUAAAACAACAGAGGAUUGAGCAUCA
# B22: chr14:53039561:53039662:-|3pUTR|ENSG00000100523|unk|total|mutant (ssRNA)
# RNA: GGGAGUUCUACAGUCCGACGAUCUCAAACUAUAUUUUUGUUACAGCAAACUACAUUCCAUUUGCCUUUAAAUGCUUGCAUUUCCGUUAUUGUACUGGCUACCUGUUUUUGUCUGCCCAGCAUCCUGUUUCCCCUCCUUUUGGACAACAGAGGAUUGAGCAUCA
# Target: T1, UNK ZnF1-6 (called full-length)
# Test: nsRBNS (natural sequence RNA bind-n-seq); RBNS binding buffer (assumed for nsRBNS): 25 mM Tris pH 7.5, 150 mM KCl, 3 mM MgCl2, 0.01% Triton X-100, 500 ug/ml BSA, 20 U/ml SUPERase-In, 4 C; UNK is unkempt and MSI1 is Musashi-1; names of the RNAs are library labels; protein concentration not given here; high values mean tight binding
row,Binder,binding signal [enrichment R]
1,B1,0.508
2,B2,2.63
3,B3,0.521
4,B4,2.23
5,B5,0.807
6,B6,1.02
7,B7,1.38
8,B8,0.774
9,B9,0.629
10,B10,0.424
11,B11,0.299
12,B12,0.699
13,B13,1.68
14,B14,0.898
15,B15,0.335
16,B16,0.601
17,B17,11.8
18,B18,0.423
19,B19,2.18
20,B20,0.401
21,B21,1.89
22,B22,0.468
